The values that follow come from article PMC4336329 (PLoS ONE, 2015).

Molecules are shown by their SMILES. Hit rate of the full screen: of about 310,000 compounds, about 14,000 (4.5%) showed an effect of 50% or more. Effects have a minus sign here. Some of the results follow.
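Further: peak tail current of the secondary pulse compared with the same well before compound.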

Sequence of human ether-à-go-go-related gene (hERG) potassium channel (Q12809 whole entry, looked up): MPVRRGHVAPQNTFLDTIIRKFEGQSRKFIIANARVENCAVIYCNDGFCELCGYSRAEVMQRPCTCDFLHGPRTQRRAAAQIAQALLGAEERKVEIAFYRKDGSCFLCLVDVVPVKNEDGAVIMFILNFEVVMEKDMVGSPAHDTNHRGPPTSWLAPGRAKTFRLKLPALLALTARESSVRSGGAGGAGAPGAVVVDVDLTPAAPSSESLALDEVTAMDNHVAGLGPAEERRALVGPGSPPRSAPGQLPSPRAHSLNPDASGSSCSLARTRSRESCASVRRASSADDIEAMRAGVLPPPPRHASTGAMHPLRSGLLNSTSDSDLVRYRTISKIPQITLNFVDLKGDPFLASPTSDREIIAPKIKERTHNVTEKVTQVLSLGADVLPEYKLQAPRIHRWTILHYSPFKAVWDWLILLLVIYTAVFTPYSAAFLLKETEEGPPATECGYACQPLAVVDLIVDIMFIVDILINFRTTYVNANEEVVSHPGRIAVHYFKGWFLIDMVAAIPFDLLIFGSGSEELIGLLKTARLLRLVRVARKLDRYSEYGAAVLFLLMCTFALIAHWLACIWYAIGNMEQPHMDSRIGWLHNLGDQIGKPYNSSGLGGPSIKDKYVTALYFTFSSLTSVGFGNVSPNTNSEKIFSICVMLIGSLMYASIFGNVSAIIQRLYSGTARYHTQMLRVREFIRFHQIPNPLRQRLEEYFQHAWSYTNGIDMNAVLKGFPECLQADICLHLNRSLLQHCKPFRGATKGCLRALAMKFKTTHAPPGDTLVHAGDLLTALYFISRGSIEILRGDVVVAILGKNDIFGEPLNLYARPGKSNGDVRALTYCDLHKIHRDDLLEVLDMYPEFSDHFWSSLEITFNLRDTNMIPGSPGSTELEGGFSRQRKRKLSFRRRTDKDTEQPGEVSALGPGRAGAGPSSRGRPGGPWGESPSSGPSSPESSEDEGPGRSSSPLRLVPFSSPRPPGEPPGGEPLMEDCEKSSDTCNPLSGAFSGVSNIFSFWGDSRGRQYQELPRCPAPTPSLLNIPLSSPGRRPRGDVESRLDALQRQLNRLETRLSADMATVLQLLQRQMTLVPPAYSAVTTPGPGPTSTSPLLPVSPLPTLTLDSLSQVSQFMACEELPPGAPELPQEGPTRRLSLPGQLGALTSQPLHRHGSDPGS

The assay has as its target human ether-à-go-go-related gene (hERG) potassium channel (human, UniProt Q12809). Put plainly: primary screen, population patch clamp on CHO cells stably expressing hERG.
As for `O=C(CN(Cc1ccccc1Cl)C(=O)c1ccc(CN2CCOCC2)o1)NCC1CCCO1` (stereo not drawn), the “hERG current change (%, negative = inhibition) at 10uM” value is given as 14.2%. Consider `Cc1ccc2nc(Nc3ccccc3)c(C=O)c(=O)n2c1`, for which the “hERG current change (%, negative = inhibition) at 10uM” value is given as 4.99%. On to `c1ccc(N2CCN(c3ccccc3)C2c2cccnc2)cc1`, for which the “hERG current change (%, negative = inhibition) at 10uM” value is reported as 1.84%.

Consider `CCC(=O)c1ccc(N2CCOCC2)c(F)c1`, for which the “hERG current change (%, negative = inhibition) at 10uM” value is 3.96%. For `CC(C)NC(=O)CSCc1c(F)cccc1Cl` the value was 13%; for `Cc1ccc(NC(=O)CSc2nnc(C(F)(F)F)n2C)cc1[N+](=O)[O-]`, -73.6%; for `Cc1cccc(Nc2ncccc2C(=O)O)c1C`, 14.8%. `COc1ccc(N2C(=O)NC(NS(=O)(=O)c3ccccc3)(C(F)(F)F)C2=O)cc1` (stereo not drawn): the “hERG current change (%, negative = inhibition) at 10uM” value is 2%.

On to `O=C(/C=C/NCc1cccnc1)c1ccc(Br)cc1`, for which the “hERG current change (%, negative = inhibition) at 10uM” value is -40.7%. As for `CC(C)N(Cc1nc(-c2ccccc2)no1)C(=O)C(C)(C)C`, the “hERG current change (%, negative = inhibition) at 10uM” value was -9.09%.

Turning to `COCCN=C1NN=C(c2ccc(C)c([N+](=O)[O-])c2)CS1`, the “hERG current change (%, negative = inhibition) at 10uM” value amounted to 11.7%. Consider `COc1ccc(-c2[nH]ncc2/C=N\NS(=O)(=O)c2ccc(Cl)cc2)cc1`, for which the “hERG current change (%, negative = inhibition) at 10uM” value is recorded as -8.03%. As for `Cc1ccc(C(=O)Nc2ccon2)cc1S(=O)(=O)N1CCOCC1`, the figure is -8.03%. Turning to `CC(C)n1cc(NC(=O)C2CC(c3cccc(Br)c3)=NO2)cn1` (stereo not drawn), the “hERG current change (%, negative = inhibition) at 10uM” value is on record as -6.11%. As for `COc1cc2cc(C(=O)N/N=C/c3ccccc3Cl)[nH]c2cc1OC`, the figure is 18.5%. For `Cc1ccc(C)c(N2CCN(S(=O)(=O)c3ccc4c(c3)NC(=O)CC(=O)N4)CC2)c1` the value was -27.2%; for `COc1ccc(NC(=O)/C=N/O)cc1`, 13.2%; for `O=C(Nc1cccc([N+](=O)[O-])c1)c1ccc2ccccc2c1O`, 20.1%. Turning to `CC(OC(=O)C1CC(=O)N(Cc2ccccc2)C1)C(=O)Nc1ccc(F)cc1Cl` (stereo not drawn), the “hERG current change (%, negative = inhibition) at 10uM” value is reported as -26.8%.

As to `Cc1ccc(-n2c(C)cc(C(=O)CN3CCCCC3)c2C)cc1`, the “hERG current change (%, negative = inhibition) at 10uM” value is recorded as -31.9%. For `Cc1cc(-c2nc3ccccc3o2)c2ccccc2n1`, the “hERG current change (%, negative = inhibition) at 10uM” value was -1.57%. As for `CCCCNC(=O)c1ccccc1SCc1c(C)noc1C`, the figure is -1.59%. For `CCc1cc(C(=O)N2CCOCC2)c(NC2=NS(=O)(=O)c3ccccc32)s1` the value was 0.974%. In the case of `Cc1ccc(N2CCN(CCc3nc4cc(NS(C)(=O)=O)ccc4n3C)CC2)cc1`, the “hERG current change (%, negative = inhibition) at 10uM” value is -59.8%. `O=C(O)CN1C(=O)C2(OCCCO2)c2ccccc21`: the “hERG current change (%, negative = inhibition) at 10uM” value is -18.5%. As for `COc1ccc(NC(=O)c2c(-c3ccccc3Cl)noc2C)c(OC)c1`, the figure is 4.25%. As for `CN(C)S(=O)(=O)c1cccc(NC(=O)COc2cccc(C#N)c2)c1`, the figure is -27%. For `O=C(Cc1cccs1)Nc1cccc(-c2nc3ccccc3o2)c1` the value was 4.75%; for `CN(CC(=O)Nc1ccc2c(c1)OCO2)S(=O)(=O)c1ccc(F)cc1`, -4.45%; for `CC1CCC(C#N)(N(C)C(=O)CSc2nnc(C3CC3)n2C2CC2)CC1` (stereo not drawn), -14.3%. Regarding `CCC(C)[C@H](NC(=O)c1cc2cc(Cl)ccc2n1C)C(=O)N1CCC(C(=O)O)CC1` (stereo partly drawn), the “hERG current change (%, negative = inhibition) at 10uM” value is given as 20.1%. Regarding `CCOc1ccc(C(CC(=O)O)NC(=O)C23CC4CC(CC(C4)C2)C3)cc1` (stereo not drawn), the “hERG current change (%, negative = inhibition) at 10uM” value is listed as -6.54%. For `CCCCC/C(=N\NC(=O)Nc1ccccc1)c1ccccc1`, the “hERG current change (%, negative = inhibition) at 10uM” value is reported as 8.43%. Turning to `CCCCc1nnc(NC(=O)CN2C(=O)NC3(CCCCC3)C2=O)s1`, the “hERG current change (%, negative = inhibition) at 10uM” value was -5.43%.

With `CCOc1cccc(CN2CCN(CCCc3ccccc3)C(CCO)C2)c1O` (stereo not drawn), the “hERG current change (%, negative = inhibition) at 10uM” value was -76.3%. As to `CCOC(=O)CNC(=O)OC1CCN2Cc3ccccc3N=C12.Cl` (stereo not drawn), the “hERG current change (%, negative = inhibition) at 10uM” value is on record as -0.36%. For `Cc1ccccc1CN1CCN(S(C)(=O)=O)CC1` the value was -1.89%; for `O=C(O)c1ccccc1C(=O)NCC(O)c1ccccc1` (stereo not drawn), 12.9%. As for `COc1cc(/C=N/NC(N)=O)cc([N+](=O)[O-])c1O`, the figure is 18.1%; as for `COc1ccc(CC(=O)NNC(=O)c2cc(C)[nH]n2)cc1`, 24.3%. For `CC1CCc2nc3ccc(S(=O)(=O)N4CCC(C(=O)NCc5ccccc5Cl)CC4)cc3c(C(=O)O)c2C1` (stereo not drawn) the value was 7.04%; for `COCC(C)n1c(COc2ccccc2F)nnc1SCC(=O)Nc1oc(C)c2c(C)n[nH]c(=O)c12` (stereo not drawn), 8.78%; for `COc1ccccc1NC(C)=O`, 6.25%. Consider `CC(=O)Nc1ccc(OCC(O)Cn2ccnc2)cc1` (stereo not drawn), for which the “hERG current change (%, negative = inhibition) at 10uM” value turned out to be 27.2%.

As to `O=C(CN1C(=O)COc2ccccc21)NCc1ccccn1`, the “hERG current change (%, negative = inhibition) at 10uM” value was -2.72%.
